In all, about 110,000 compounds were measured (“z-score”: median about -0.1, highest 2% from about 2 on). The list shows a part of the results. Activity calls are given as the source filed them.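 How the source made its calls: active means z-score in the third read window above 3 or below -3; inactive means the rest.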

This assay concerns the target Metabotropic glutamate receptor 8 (Rattus norvegicus) (UniProt P70579). The assay can be described thus: rat mGluR8 modulators via GIRK flux, primary screen, cell-based, thallium flux, HTS (AID 488969). To be noted: HEK293 rat mGluR8, GIRK (G protein-gated inwardly rectifying potassium channel) thallium flux, FluoZin2; at 10 µM; stronger effect = higher value; submaximal glutamate (EC20) added with thallium.
Chain of UniProt P70579 (P70579 whole entry, looked up): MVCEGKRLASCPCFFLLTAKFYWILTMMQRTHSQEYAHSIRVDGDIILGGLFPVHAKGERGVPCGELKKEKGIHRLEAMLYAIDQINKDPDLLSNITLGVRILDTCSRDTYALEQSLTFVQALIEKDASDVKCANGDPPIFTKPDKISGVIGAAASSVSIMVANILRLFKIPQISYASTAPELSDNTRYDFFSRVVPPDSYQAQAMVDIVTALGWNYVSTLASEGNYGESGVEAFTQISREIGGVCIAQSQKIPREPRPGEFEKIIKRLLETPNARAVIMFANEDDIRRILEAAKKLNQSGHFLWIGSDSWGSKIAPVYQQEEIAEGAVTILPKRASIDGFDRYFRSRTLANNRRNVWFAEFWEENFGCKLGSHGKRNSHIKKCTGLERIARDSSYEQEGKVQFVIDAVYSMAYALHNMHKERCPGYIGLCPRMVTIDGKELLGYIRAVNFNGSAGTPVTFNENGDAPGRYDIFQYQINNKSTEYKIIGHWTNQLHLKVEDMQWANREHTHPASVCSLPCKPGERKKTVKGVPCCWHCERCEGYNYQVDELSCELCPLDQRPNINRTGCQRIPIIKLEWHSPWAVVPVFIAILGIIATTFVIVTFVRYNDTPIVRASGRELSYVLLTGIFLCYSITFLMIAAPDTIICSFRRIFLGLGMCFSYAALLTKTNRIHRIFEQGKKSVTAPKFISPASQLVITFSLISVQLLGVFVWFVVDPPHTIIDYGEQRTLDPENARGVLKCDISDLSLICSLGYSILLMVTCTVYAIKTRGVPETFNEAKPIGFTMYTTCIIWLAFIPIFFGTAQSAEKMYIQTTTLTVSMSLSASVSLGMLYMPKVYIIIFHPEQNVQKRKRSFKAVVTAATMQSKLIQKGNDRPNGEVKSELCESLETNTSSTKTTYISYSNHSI
Consider `CCOc1ccc(CN(C(=O)c2oc3ccccc3c2C)C2CCS(=O)(=O)C2)cc1` (stereo not drawn), for which the z-score was -0.167.
For `CCOC(=O)c1c(/N=C/c2cc(OC)cc([N+](=O)[O-])c2O)sc(C)c1C` the value was -0.172.
The result for `COc1ccc(-c2[nH]ncc2/C=N/NC(=O)c2ccc(Br)cc2)c(OC)c1` reads -0.904; that for `CCC(C)n1c(-c2ccco2)nc2nc3ccccc3nc21` (stereo not drawn), -1.06.
The result for `CCOC(=O)c1nn(-c2ccc(F)cc2)c2c1CC/C2=C/c1ccccc1` reads 0.739; that for `Cc1ccc2nc(-c3ccc(NC(=O)COC(=O)c4ccc(Br)o4)cc3)sc2c1`, -0.168; that for `COc1ccc(C)cc1S(=O)(=O)Nc1ccc(F)c(Cl)c1`, -0.385.
`CC(C)CCNC(=O)c1cnn2c(C(F)(F)F)cc(-c3ccco3)nc12` yielded a z-score of -1.04.
The result for `COC(=O)c1ccc(-c2ccco2)n1Cc1ccccc1Cl` reads -0.376; that for `CC(=O)N(Cc1ccc2c(c1)OCO2)C1CC(=O)N(CCc2ccccc2)C1=O` (stereo not drawn), 1.07; that for `CCCCn1c(NCc2ccccc2NS(=O)(=O)c2ccc(C)cc2)nc2ccccc21`, -0.354.
For `Cn1ccnc1SCC(=O)Nc1ccc2ccccc2c1` the value was -0.203; for `CCC1(C)Cc2c(C#N)c(N)sc(=S)c2CO1` (stereo not drawn), -1.08.
For `CCc1ccc(OCCNC(=O)c2cccs2)cc1` the value was 0.789.
The molecule `N#CC(C(=O)NC1CC1)c1nc2ccccc2nc1N1CCN(C/C=C/c2ccccc2)CC1` (stereo not drawn) had a z-score of -0.502.
For `CCC(C)NC(=O)C1c2ccccc2C(=O)N(c2ccc(OC)cc2)C1c1ccc(OC)cc1` (stereo not drawn) the value was -0.411.
The result for `CCOc1cc(CNCCc2ccc(S(N)(=O)=O)cc2)ccc1OCC(=O)NC1CCCCC1` reads 0.417; that for `CCOC(=O)Nc1c(C(=O)OC)[nH]c2cc(OC)ccc12`, 0.56; that for `CN=c1scc(C)n1/N=C/c1ccc(O)cc1O`, 0.0453.
The molecule `Cc1cc(C(=O)CSc2ncn[nH]2)c(C)n1-c1cccc(S(=O)(=O)N2CCOCC2)c1` displayed a z-score of -0.696.
For `C/C(=N\NC(=O)c1c(Br)c(C)nn1C)c1cccc(NC(=O)c2ccccc2C)c1`, the z-score is -0.644.
In the case of `Cc1nc(NC(=O)/C=C/c2ccccc2)sc1C(=O)Nc1ccc(Cl)cc1`, the z-score is 0.0734.
The result for `Cc1ccccc1-n1nc2c(c1NC(=O)COc1ccc(Cl)cc1)CS(=O)C2` (stereo not drawn) reads -0.623; that for `O=C(Oc1cccc(/C=N/Nc2nc(N3CCOCC3)nc(N3CCOCC3)n2)c1)c1ccco1`, -0.508.
The result for `O=C(O)Cn1nnc(-c2cccs2)n1` reads 0.0931; that for `COc1ccc(CCNC(=O)C2CCCN(S(=O)(=O)c3cccc4nonc34)C2)cc1OC` (stereo not drawn), -1.46; that for `CCCSC1=C(C#N)C(c2cccs2)C(C(=O)Nc2ccccc2)=C(C)N1` (stereo not drawn), -0.638.
As for `CS(=O)(=O)Nc1ccc(-c2n[nH]c(=S)n2-c2ccccc2)cc1`, the z-score came to 0.118.
The molecule `CC1(C(=O)O)CCC(C(=O)NCCc2ccccc2)C1(C)C` (stereo not drawn) returned a z-score of 0.0302.
For `O=C(/C=C/c1ccc([N+](=O)[O-])cc1)Nc1cccnc1` the value was 0.00268; for `COc1ccccc1/C=C(\NC(=O)c1ccc(OC)c(OC)c1)C(=O)Nc1cc([N+](=O)[O-])ccc1C`, 0.194; for `Cc1cc(C)c(C(N)=O)c(SCC(=O)c2cc(C)c(C)cc2C)n1`, -0.0701.
`O=S(=O)(c1ccc(Cl)cc1)N1c2ccccc2Oc2nc3ccccc3nc21` had a z-score of 0.634.
For `COc1cccc(NC(=S)NC2CC(C)(C)NC(C)(C)C2)c1`, the z-score came to 0.0244.
For `CC(C)(C)NC(=O)Cn1c(SCC(N)=O)nc2ccccc21` the value was 0.038; for `Cc1ccc(CN(N=Nc2nonc2N)c2nonc2N)c(C)c1`, -0.197.
For `CN(C)c1cccc(C(=O)Nc2cc(C(F)(F)F)ccc2-n2cnc3ccccc32)c1` the value was 0.403.
For `COCCn1c(N)c(S(=O)(=O)c2cccs2)c2nc3ccccc3nc21` the value was 0.975; for `O=C(NCc1ccc(F)cc1)C1CCCN(S(=O)(=O)c2cccnc2)C1` (stereo not drawn), 0.396; for `CCN(CC)c1ccc(/C=N/N2CCN(Cc3ccccc3)CC2)c(O)c1`, 0.00652.
Turning to `COc1ccc(CCNC(=S)Nc2ccccc2C)cc1`, the z-score was determined as 0.829.
For `O=C1NC(c2cccnc2)C(C(=O)c2cccs2)C(O)(C(F)(F)F)N1` (stereo not drawn) the value was 0.215; for `C/C(=N\OCC(=O)N/N=C/c1ccccc1O)c1cccs1`, 0.855.
For `O=C(Nc1ccc(Cl)c([N+](=O)[O-])c1)c1ccc(NCCCN2CCOCC2)c([N+](=O)[O-])c1` the value was -0.0118; for `COc1ccc(-c2cc(CNC(=O)CN3CCN(C)CC3)on2)cc1`, 0.631.
The molecule `C=CCNC(=O)c1ccccc1NC(=O)c1cccc2ccccc12` displayed a z-score of -0.251.
Consider `CCOc1ccc(C)cc1S(=O)(=O)Nc1ccc(Cl)cn1`, for which the z-score was -0.0631.
The result for `CC1Cc2cccc3c(O)c(C(=O)c4nn[nH]n4)c(=O)n1c23` (stereo not drawn) reads 0.029; that for `COc1ccc(N2CCN(C(=O)CNC(=O)Cn3c(C)cc4ccccc4c3=O)CC2)cc1`, -0.427; that for `O=C(Nc1ccc(Cl)c(Cl)c1)N1CC=C(c2ccccc2)CC1`, 0.184.
The result for `O=[N+]([O-])c1cccc(/C=N\N2CCN(Cc3ccccc3Cl)CC2)c1` reads -0.0536.
For `Cc1ccc(-c2nc(C#N)c(NCc3cccc4c3OCO4)o2)cc1`, the z-score is -0.0194.
The result for `C(=C/c1ccnc2nc(SC/C=C/c3ccccc3)nn12)/c1ccccc1` reads 0.107.
The result for `O=C(C1CCC(=O)N1Cc1ccccc1Cl)N1CCN(c2ccc(F)cc2)CC1` (stereo not drawn) reads 0.184; that for `CN1CCc2nc(SCc3ccc(Cl)cc3)c(C#N)c(-c3cccs3)c2C1`, 0.101; that for `Cc1occc1C(=O)NNC(=O)c1ccccc1Br`, 0.0329.
The result for `CCC(=O)NC(Nc1nc2ccc(C)cc2s1)(C(=O)OC)C(F)(F)F` (stereo not drawn) reads 0.168; that for `COc1cc(NC(=O)Cn2c(=O)n(-c3cccc(C)c3)c(=O)c3c(C)c(C)sc32)cc(OC)c1`, -0.208; that for `Cc1cc(C)c(NC(=O)C(C)Sc2nc3ccc(N4C(=O)c5ccccc5C4=O)cc3s2)c(C)c1` (stereo not drawn), -1.42.
Turning to `CN1CCN(S(=O)(=O)c2ccc(NC(=O)c3ccc(F)cc3)cc2)CC1`, the z-score stood at 0.931.
For `O=C(Cn1ccc2ccccc2c1=O)NCCC(=O)N1CCN(C2CCCCC2)CC1` the value was -0.0939; for `O=C(NCc1ccccn1)c1cc(-c2ccccc2)nc2ccccc12`, -0.314.
The result for `Cc1ccc(S(=O)(=O)N2CCN(c3ccc(C(=O)N4CCOCC4)cc3[N+](=O)[O-])CC2)cc1` reads 0.647; that for `O=C(CSc1nnc(-c2ccccc2Br)o1)N1CCN(C(=O)c2ccco2)CC1`, -0.13; that for `O=C(NNC(=O)c1ccccc1-n1cccc1)c1ccc(Cl)cc1Cl`, 0.632.
The result for `CCOC(=O)C(NCc1ccccc1OC)(NC(=O)CC)C(F)(F)F` (stereo not drawn) reads 0.04; that for `Cc1cc(OCC(=O)NCc2nc(-c3ccccc3)no2)c(C)cc1Br`, 1.12; that for `Cc1n[nH]c(=S)n1/N=C/c1ccccc1OCc1ccc(Cl)cc1`, 0.0338.
`Nc1nc(CSCCO)nc(Nc2ccccc2)n1`: the z-score was -0.257.
The molecule `Cc1nc(C(F)(F)F)c(C(=O)NC(=O)Nc2ccc(OC(F)(F)F)cc2)s1` had a z-score of 0.438.
The result for `COCCCNC(=O)C1CCCCN1S(=O)(=O)c1ccc(F)cc1` (stereo not drawn) reads 0.633.
`COc1ccc(-c2cc(C#N)nc(Oc3ccc(Cl)cc3)n2)cc1`: the z-score was -0.367.
Regarding `CCOc1ccccc1Nc1nnc(C)c(=O)[nH]1`, the z-score was -0.155.
For `CCCN1C(=O)SC(CC(=O)Nc2ccccc2)C1=O` (stereo not drawn) the value was -0.353; for `COc1ccc(C(=O)NCC(=O)OCc2ccc(F)cc2Cl)cc1OC`, -0.361; for `CC(C)n1nnnc1SCC(=O)N1CCN(C(=O)c2ccco2)CC1`, 0.14.
For `CC(C)CCNC(=O)Nc1ccc2c(c1)N(C)C(=O)CS2` the value was 0.22.
For `CCC1=NN(C(=O)c2cccc(Br)c2)C(O)(c2ccc(Br)cc2)C1` (stereo not drawn) the value was active: 3.84; for `CN(C)C(=O)c1ccc(NC(=O)c2cc(-n3cnnc3)ccc2Cl)cc1`, -0.238.
Molecule `Cc1ccc(OCC(=O)Nc2ccc3c(c2)OC(F)(F)O3)c([N+](=O)[O-])n1` displayed a z-score of 0.0335.
For `O=C(COC(=O)C1(c2ccc(Cl)cc2)CCCC1)NC1CCS(=O)(=O)C1` (stereo not drawn) the value was -0.164; for `Cc1ccc(C(=O)NNC2=Nc3cccc4cccc2c34)cc1`, -0.056; for `CC(Oc1ccc(Cl)cc1Cl)C(=O)NC1=NN(c2ccccc2)C(=O)C1` (stereo not drawn), -0.244.
The molecule `Cc1cccc(OCCCC(=O)Nc2ccc(S(N)(=O)=O)cc2)c1C` showed a z-score of -0.329.
For `CCN1CCc2nc(NC(=O)CC(c3ccccc3)c3ccccc3)sc2C1` the value was 0.113.
The result for `CCC1CCCCN1C(=O)N[C@@H](CCSC)C(=O)OC` (stereo partly drawn) reads -0.0219; that for `CCN(CC)CCCN1C(=O)C(O)=C(C(=O)c2ccc(C)o2)C1c1ccc(C)o1` (stereo not drawn), -0.166; that for `O=C(O)C1CC=C(Cl)CC1C(=O)NCC1OCCc2ccccc21` (stereo not drawn), 0.0523.
The molecule `C/C(=N\NC(=S)NC1CCCCC1)c1ccccc1` yielded a z-score of -0.178.
The result for `O=C(N/N=C/c1c[nH]c2ccccc12)c1ccncc1` reads -0.168; that for `O=C1/C(=C/c2cccs2)CCc2ccccc21`, 0.483.
Regarding `O=C1C2C3C=CC(C4CC34)C2C(=O)N1/N=C/c1ccc([N+](=O)[O-])s1` (stereo not drawn), the z-score is 0.0104.
The result for `COc1ccc(-c2cn[nH]c2-c2ccc(OCc3ccc([N+](=O)[O-])cc3)cc2O)cc1` reads 0.133; that for `c1cncc(Nc2nc(-c3cccs3)cs2)c1`, -0.078.
`O=C(CCCc1c[nH]c2ccccc12)N1CCCCCC1` came in with a z-score of -1.05.
The result for `COC(=O)/C=C1\C(=O)N(c2nc3ccccc3s2)C(=S)N1c1ccc(F)cc1` reads 0.0438.
The result for `CC(C)(C)NC(=O)Cc1ccc(S(=O)(=O)N2CCCC2)s1` reads 0.00183; that for `CC(NC(=O)C1CCCC1)c1ccc2c(c1)OCCO2` (stereo not drawn), -0.343.
The result for `CCc1nc(NCCN)c(C#N)c2c1CSC(C)(C)C2` reads -0.174.
For the molecule `COC(=O)c1c(NC(=O)CCc2ccc(C)o2)sc(C)c1C`, the z-score is -0.471.
For `CC(=O)Nc1sc2c(c1C#N)CCCC2` the value was 0.268.
The result for `Cc1ccccc1-n1c(=O)c(C#N)cc2c(=O)n3ccccc3nc21` reads -0.02; that for `Cc1ccc(S(=O)(=O)N2CCOCC2)cc1NC(=O)COC(=O)CSc1ccc(Br)cc1C`, -0.132; that for `O=C(O)C1CC=CCC1C(=O)Nc1ccccc1` (stereo not drawn), -0.0276.
The result for `CC1CCCN(C(=O)CCc2ccccc2)C1` (stereo not drawn) reads -0.268.
Turning to `COc1ccc(N2C(=O)C(Cl)=C(N3CCCC(C)C3)C2=O)cc1` (stereo not drawn), the z-score was -0.539.
`CN1CCN(C(=O)CCC(=O)c2ccc(F)cc2)CC1` came in with a z-score of 0.574.
Molecule `C(=N\n1cnnc1)/c1nc2ccccc2[nH]1` had a z-score of -0.217.

The values are drawn from PubChem BioAssay AID488969 (Vanderbilt High Throughput Screening Facility, 2010).
